± gives the standard error. Variants at the background level are over-represented here.
B1: glmS ribozyme (parent)
chain: AUAAAAGCGCCAGAACUACAGAAAUGUAGUUGACGAGGAGGAGGUUUAUCGAAUUUUCGGCGGAUGCCUCCAAA

Tests used:
Settings in all cases: with glucosamine-6-phosphate
glucosamine-6-phosphate [1] = variants of: B1; experiment: self-cleavage kobs at 160 uM GlcN6P; higher = faster cleavage; RNA array
Summary of the method: (§1)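 Over ~14 h at 37 °C, tiles were imaged as glucosamine-6-phosphate (40 μM to 10 mM) in HEPES/KCl/Mg(OAc)2 buffer flowed across sequenced MiSeq chips. The chips carried barcoded ribozyme variants transcribed in situ by E. coli RNA polymerase and tracked with a hybridised Cy3 probe. After normalisation to baseline and to non-cleaving reference variants, one- or two-exponential decay fits of per-tile medians gave kobs. kcat and KM followed from weighted Michaelis–Menten fits across concentrations.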

glucosamine-6-phosphate [2] = variants of: B1; experiment: self-cleavage kobs at 2500 uM GlcN6P; higher = faster cleavage; RNA array
Summary of the method: as §1

glucosamine-6-phosphate [3] = variants of: B1; experiment: self-cleavage kobs at 10000 uM GlcN6P; higher = faster cleavage; RNA array
Summary of the method: as §1

Row | Variant | self-cleavage kobs at 160 uM GlcN6P (glucosamine-6-phosphate [1]) | self-cleavage kobs at 2500 uM GlcN6P (glucosamine-6-phosphate [2]) | self-cleavage kobs at 10000 uM GlcN6P (glucosamine-6-phosphate [3])
1 | AUAAAAGCGCCAGAACUACAGAAAUGUAGUUGACAUGGAGGAGGUUUAUCGAAUUUUCGGCGGAUGCAUCCCAA [G35A A36U C68A A72C] | < 1e-05 s⁻¹ |  | 
2 | AUAAAAGCGCCAGAACUACAGAAAUGUAGUUGAUCAGGAGGAGGUUUAUCGAAUUUUCGGCGGAUGCCUCCAAA [C34U G35C] | < 1e-05 s⁻¹ | < 1e-05 s⁻¹ | < 1e-05 s⁻¹
3 | AUAAAAGCGCCAGAACUACAGAAAUGUAGUUGAAGAGGAGGAGAUUUAUCGAAUUUUCGGCUGAUGCCUCCAAA [C34A G44A G62U] | < 1e-05 s⁻¹ | < 1e-05 s⁻¹ | 
4 | AUAAAAGCGCCAGAACUACAGAAAUGUAGUUGACGAGCAGGAGGUUUAUCUAAUUUCCGGCGGAUGCCUCCAAA [G38C G51U U57C] | < 1e-05 s⁻¹ | < 1e-05 s⁻¹ | 
5 | AUAAAAGCGCCAGAACUACAGAAAUGUAGUUGACGACGAGGAGGUUUAUCGAAUUUUCGGCAGAGGCCUCCAAA [G37C G62A U65G] | < 1e-05 s⁻¹ |  | 
6 | AUAAAAGCGCCAGAACUACAGAAAUGUAGUUGUCGAGUAGGAGGUUUAUCGAAUUUUCGGCGGAUGCCUUCAAA [A33U G38U C70U] | < 1e-05 s⁻¹ |  | 
7 | AUAAAAGCGCCAGAACUACAGAAAUGUAGUUGACGUGGAGGAGGUUUUUCGAAUUUUUGGCGGAUGCCUCCAAA [A36U A48U C58U] | < 1e-05 s⁻¹ |  | 
8 | AUAAAAGCGCCAGAACUACAGAAAUGUAGUUGACCAGGAGGAGGUUUAUCGAAUUUGCCGCGGAUGCCUCCAAA [G35C U57G G59C] | < 1e-05 s⁻¹ |  | 
9 | AUAAAAGCGCCAGAACUACAGAAAUGUAGUUGACGACGAGGAGGUUUAUCGAUUUUUCGGCGGAUGCCUUCAAA [G37C A53U C70U] | < 1e-05 s⁻¹ |  | 
10 | AUAAAAGCGCCAGAACUACAGAAAUGUAGUUGACAACGAGGAGGUUUAUCGAAUUUUCGGCGAAUGCCUCCAAA [G35A G37C G63A] | < 1e-05 s⁻¹ | < 1e-05 s⁻¹ | 
11 | AUAAAAGCGCCAGAACUACAGAAAUGUAGUUGACAAGGAGGAGGUUUAGCCAAUUUUCGGCGGAUGCCUCCAAA [G35A U49G G51C] | < 1e-05 s⁻¹ | < 1e-05 s⁻¹ | 
12 | AUAAAAGCGCCAGAACUACAGAAAUGUAGUUGACGAGAAGGAGGUUUAUCGAUUUUUCGGCGGUUGCCUCCAAA [G38A A53U A64U] | < 1e-05 s⁻¹ |  | 
13 | AUAAAAGCGCCAGAACUACAGAAAUGUAGUUGAAGAAGAGAAGGUUUAUCGAAUUUUCGACGGAUGCCUCCAAA [C34A G37A G41A G60A] | < 1e-05 s⁻¹ |  | < 1e-05 s⁻¹
14 | AUAAAAGCGCCAGAACUACAGAAAUGUAGUUGACGAAUAGGAGGUUUAUCGAAUUUUCGGCGGAUGCCUCCAAA [G37A G38U] | < 1e-05 s⁻¹ |  | 
15 | AUAAAAGCGCCAGAACUACAGAAAUGUAGUUGACGAGCAGGAGUUUUAUCGAAUUUUCGGCGGAUGGCUCCAAA [G38C G44U C67G] | < 1e-05 s⁻¹ |  | < 1e-05 s⁻¹
16 | AUAAAAGCGCCAGAACUACAGAAAUGUAGUUGACUAGGAGGAGGUUUAUCGAAUUUUCGGCGGAUGCGCCCAAA [G35U C68G U69C] | < 1e-05 s⁻¹ | < 1e-05 s⁻¹ | 
17 | AUAAAAGCGCCAGAACUACAGAAAUGUAGUUGACUAGGAGGAGGUUUGUCGAAUAUUCGGCGAAUGCUUCCAAA [G35U A48G U55A G63A C68U] | < 1e-05 s⁻¹ |  | 
18 | AUAAAAGCGCCAGAACUACAGAAAUGUAGUUGACGAAGAGGAGGUUAAUCGAAUUUUCUGCGGAUGCCCCCAAA [G37A U47A G59U U69C] | < 1e-05 s⁻¹ |  | 
19 | AUAAAAGCGCCAGAACUACAGAAAUGUAGUUGGCGAGGAGGAGGUUGCUCCAAUUUUCGGCGGAUGCCUCCAAA [A33G U47G A48C G51C] | < 1e-05 s⁻¹ |  | 
20 | AUAAAAGCGCCAGAACUACAGAAAUGUAGUUGACGAGCAGCAGGAUUAUCGAAUUUUCGGCGGAUGCCUCCAAA [G38C G41C U45A] | < 1e-05 s⁻¹ | < 1e-05 s⁻¹ | 
21 | AUAAAAGCGCCAGAACUACAGAAAUGUAGUUGUCGAGGAGGAGGUUUAUCGAGUUUUCGGCGGAUGCCUUCAAA [A33U A53G C70U] | < 1e-05 s⁻¹ |  | 
22 | AUAAAAGCGCCAGAACUACAGAAAUGUAGUUGACGAGCAGAAGGUUUAUCUAAUUUUCGGCGGAUGCCUCCAAA [G38C G41A G51U] | < 1e-05 s⁻¹ | < 1e-05 s⁻¹ | 
23 | AUAAAAGCGCCAGAACUACAGAAAUGUAGUUGAUGAGGAGGAGGUUUAUGGAAUUUUCGGCGGAUGCAUCCAAA [C34U C50G C68A] | 9.29e-05 ± 2.9e-05 s⁻¹ | 9.73e-05 ± 2.8e-05 s⁻¹ | 
24 | AUAAAAGCGCCAGAACUACAGAAAUGUAGUUGACGCGGAGGAGGUUUAUGAAAUUUUCGGCGGAUGCCUCCAAA [A36C C50G G51A] | < 1e-05 s⁻¹ |  | 

Row | Variant | self-cleavage kobs at 160 uM GlcN6P (glucosamine-6-phosphate [1]) | self-cleavage kobs at 2500 uM GlcN6P (glucosamine-6-phosphate [2]) | self-cleavage kobs at 10000 uM GlcN6P (glucosamine-6-phosphate [3])
25 | AUAAAAGCGCCAGAACUACAGAAAUGUAGUUGACCAGGAGGAGGUUUAUCGAAUUUCCGGCGGAUGCCUCCAAA [G35C U57C] | < 1e-05 s⁻¹ | < 1e-05 s⁻¹ | < 1e-05 s⁻¹
26 | AUAAAAGCGCCAGAACUACAGAAAUGUAGUUGACAAGGAGGAGGUUUAUCGAAUUUUCGGCGGAUGCUUGCAAA [G35A C68U C70G] | < 1e-05 s⁻¹ |  | 
27 | AUAAAAGCGCCAGAACUACAGAAAUGUAGUUGACGGGAAGGAGGUUUAUCGAAUUUUCGGCGGAUGACUCCAAA [A36G G38A C67A] | < 1e-05 s⁻¹ |  | 
28 | AUAAAAGCGCCAGAACUACAGAAAUGUAGUUGACAAGGAGGAGGGUUAUCGAAUUUUCGGCGGAAGCCUCCAAA [G35A U45G U65A] | < 1e-05 s⁻¹ | < 1e-05 s⁻¹ | 
29 | AUAAAAGCGCCAGAACUACAGAAAUGUAGUUGACUAGGAGAAGGUUUAUCGAAUUUUCGUCGGAUGCCUCCAAA [G35U G41A G60U] | < 1e-05 s⁻¹ | < 1e-05 s⁻¹ | 
30 | AUAAAAGCGCCAGAACUACAGAAAUGUAGUUGACGAAGAGGAGGUUUAUCUAAUUUUCGGCGGAUGCCUCCAAA [G37A G51U] | < 1e-05 s⁻¹ | < 1e-05 s⁻¹ | 
31 | AUAAAAGCGCCAGAACUACAGAAAUGUAGUUGACAAGGAGGAGGUUUAUCGAAUUUUGGGCGGAUGCCUCCAAA [G35A C58G] | < 1e-05 s⁻¹ | < 1e-05 s⁻¹ | 
32 | AUAAAAGCGCCAGAACUACAGAAAUGUAGUUGAUGAGGAGGAGGUUUAGCGUAUUUUCGGCGGAUGCCUCCAAA [C34U U49G A52U] | < 1e-05 s⁻¹ | < 1e-05 s⁻¹ | < 1e-05 s⁻¹
33 | AUAAAAGCGCCAGAACUACAGAAAUGUAGUUGAAGAGGAGAAGGUUUAUCGAAUUUUCGGCGGAUGCCUCUAAA [C34A G41A C71U] | < 1e-05 s⁻¹ |  | 
34 | AUAAAAGCGCCAGAACUACAGAAAUGUAGUUGACGCGGAGGAGGUUAAUCGAAUUUUCGGCGGAUGCCUCCAAA [A36C U47A] | < 1e-05 s⁻¹ | < 1e-05 s⁻¹ | 
35 | AUAAAAGCGCCAGAACUACAGAAAUGUAGUUGACGAAGAGGAGGUUUAUCGAAUUUUCAGCAGAUGCCUCCAAA [G37A G59A G62A] | < 1e-05 s⁻¹ |  | 
36 | AUAAAAGCGCCAGAACUACAGAAAUGUAGUUGAUGAGGAGGAGGUUUAUCGAAUUUUCGGCGAAUGCCUCCAAA [C34U G63A] | < 1e-05 s⁻¹ | < 1e-05 s⁻¹ | < 1e-05 s⁻¹
37 | AUAAAAGCGCCAGAACUACAGAAAUGUAGUUGACGACGAGAAGUUUUAUCGAAUUUUCGGCGGAUGCCUCCAAA [G37C G41A G44U] | < 1e-05 s⁻¹ |  | 
38 | AUAAAAGCGCCAGAACUACAGAAAUGUAGUUGACGAGUGGGAGGUUUAUCGAAUUUUCAGCGGAUGCCUCCAAA [G38U A39G G59A] | < 1e-05 s⁻¹ | < 1e-05 s⁻¹ | 
39 | AUAAAAGCGCCAGAACUACAGAAAUGUAGUUGACGGGAAGGAGGUUUAUCGUAUUUUCGGCGGAUGCCUCCAAA [A36G G38A A52U] | < 1e-05 s⁻¹ |  | 
40 | AUAAAAGCGCCAGAACUACAGAAAUGUAGUUGACUAGGAGGAGGUUUGUCGAAUUUACGGCGGAUGCCUGCAAA [G35U A48G U57A C70G] | < 1e-05 s⁻¹ | < 1e-05 s⁻¹ | 
41 | AUAAAAGCGCCAGAACUACAGAAAUGUAGUUGACAAGGUGGAGGUUUAUCGAAUUUUCGGCGGAUGCCUCCAAA [G35A A39U] | < 1e-05 s⁻¹ |  | < 1e-05 s⁻¹
42 | AUAAAAGCGCCAGAACUACAGAAAUGUAGUUGACGCGGAGGAGGUUUAGCGAAUUUUCGGCGGUUGCCUCCAAA [A36C U49G A64U] | < 1e-05 s⁻¹ |  | 
43 | AUAAAAGCGCCAGAACUACAGAAAUGUAGUUGACCAGGAGGGGGUUUAUCGAAUUUUCGGCGGAGGCCUCCAAA [G35C A42G U65G] | < 1e-05 s⁻¹ | < 1e-05 s⁻¹ | 
44 | AUAAAAGCGCCAGAACUACAGAAAUGUAGUUGACGACGAGGAGGUUUAUCGAAUUUUCGGCGGAUGCCUCGAAA [G37C C71G] | < 1e-05 s⁻¹ |  | < 1e-05 s⁻¹
45 | AUAAAAGCGCCAGAACUACAGAAAUGUAGUUGAGGACGAGGAGGUUUAUCGAGUUUUCGGCGGAUGCCUCCAAA [C34G G37C A53G] | < 1e-05 s⁻¹ |  | 
46 | AUAAAAGCGCCAGAACUACAGAAAUGUAGUUGACGGGCAGGUGGUUUAUCGAAUUUUCGGCAGAUGUAGCCAAA [A36G G38C A42U G62A C67U C68A U69G] | < 1e-05 s⁻¹ |  | 
47 | AUAAAAGCGCCAGAACUACAGAAAUGUAGUUGACGAGAAGGAGGUUUAUCGAAUUUUCGGCGGGUGCCUCCAAA [G38A A64G] | < 1e-05 s⁻¹ |  | 
